The list shows a part of the results.
Tested on: PfAP2-HC AP2 domain (GST-tagged)
Test: gcPBM binding intensity (ln(normalized median fluorescence intensity)); higher = stronger DNA binding
In short: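 Binding intensity is the highest Masliner-normalised natural-log median intensity over replicate spots in either probe orientation. To obtain it, GST-tagged P. falciparum DNA-binding domains made in E. coli were incubated for 1 h on an Agilent 4 × 180k array of primer-extended double-stranded 36-bp intergenic genomic probes plus negative controls. Detection used Alexa488 anti-GST antibody with scanning at 488 nm.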

Row | Sequence | gcPBM binding intensity (ln)
1 | GAGAGAGAAATATGCACACATAAGGGAAATAAATAA [CACACA_site1153] | 10.1
2 | GAAAAAAAAAGTTAAGCACACACATGAATAAATAAT [CACACA_site8179] | 10.3
3 | TTTTGATGCTTTAAATGTACAAGGGTTCTTATGAAA [XGTACX_site831] | 9.31
4 | TGTATATAATTTATATGTACATATATTTTATTTTGT [XGTACX_site1905] | 9.66
5 | AAAAAAAAAAAATAGAAAAAAAAATAAAATAAAAAA [CACACA_negctrl_site562] | 9.5
6 | ATTATGCACGGACACACACACACACCCCTAAAAAAT [CACACA_site5426] | 11.4
7 | TGTTAACCACAAAAATAAAATAAAATAAAAATAATA [XGTACX_negctrl_site535] | 9.52
8 | TGATAAATATTATGTTGTACTTTCTGCCCTTCACAT [XGTACX_site5168] | 9.59
9 | TTTCCCATAGGAAAAACACACATATATTATAGATAA [CACACA_site7019] | 9.57
10 | TATGCTATTATATATGTACACACCAATTTATTTATA [CACACA_site3918] | 9.78
11 | AAAACATATTTTAAAAGTACTTGAAAAAAAATTTTC [XGTACX_site3940] | 9.44
12 | AAACCAAAAATAACACGTACAAAAATAAAAAGTATA [XGTACX_site4261] | 10.3
13 | GAGAGAGAAATAAAAAGTACATACATATATATACAT [XGTACX_site2267] | 9.75
14 | TGGAGATTTTTAAAGACACACAGGTAAGAATAATAA [CACACA_site1582] | 9.77
15 | ACCATTTTTATGTATAAACACACGTACCCGCACTAA [CACACA_site1604] | 9.77
16 | AAAAAAAACAGACACATACACACAAAAATGTTATAA [CACACA_site82] | 10.9
17 | TTATACCTATATTTAACACACATTTGATAAAGTGCC [CACACA_site6732] | 9.66
18 | AAAAAATTTGTTTATTGTACAGAAAGAATTATTATA [XGTACX_site6549] | 9.48
19 | TTGTAGGTAAATATGTGTACGCATTATTATTCTTAA [XGTACX_site216] | 9.58
20 | AATATAAACACAAACACACACATATAGATTTATATA [CACACA_site6263] | 10.3
21 | CACAATGGTTTATATACACACTGTTGCAAATTCTTC [CACACA_site5659] | 9.7
22 | AATATATAAATTGACACACACATATATACCTATATA [CACACA_site4803] | 10.5
23 | ATTTTTTTATTTTTGTGTACTTATAAGAATATTAAT [XGTACX_site4850] | 9.58
24 | AATGAATATATTTATTGTACATATATGAATATTGCA [XGTACX_site8689] | 9.61
25 | AAAAAAAAAAAAAAAAGTACAAAAAGGAGAAAGATA [XGTACX_site7862] | 9.59

From the supplement of paper PMC11417369
